Laboratory results published in patent US20250243260A1 (ALPINE IMMUNE SCIENCES, published 2025).
Residue numbers refer to the chain shown, from its start. Names may count otherwise. One block for each binder: values may come before it.

Target: T1, human PD-L1 (human, UniProt Q9NZQ7)
T1 construct: whole, on cells; also called SCC152/PD-L1 cells
Assay: flow cytometry, SCC152/PD-L1 cells
Protocol: Binding affinity to CD28 was determined using primary human T cells which endogenously express CD28. Binding to PD-L1 was determined using SCC152 cells transduced with human PD-L1. Binding to CTLA-4 was measured using Chinese hamster ovary (CHO) cells stably transduced to express human CTLA-4.
For staining and analysis by flow cytometry, 75,000 human T cells, SCC152/PD-L1 cells, or CHO/CTLA-4 cells were plated in 96-well round-bottom plates. Cells were spun down and resuspended in staining buffer (PBS (phosphate buffered saline), 1% BSA (bovine serum albumin), 1 mM EDTA, and 0.1% sodium azide) for 20 minutes to block non-specific binding. Afterwards, cells were centrifuged, stain buffer aspirated, and then resuspended in 50 μL of a 1:5 serial dilution of each CD80-Fc candidate variant starting at 100 nM ending at 0.8 nM. Primary staining was performed on ice for 60 minutes, before washing cells in […] staining buffer three times. PE-conjugated anti-human Fc (Jackson ImmunoResearch, USA) was diluted 1:250 in 50 μL staining buffer and added to cells and incubated another 30 minutes at 4° C. Cells were washed two times in 150 μL stain buffer and then fixed in 2% formaldehyde/PBS for 5 minutes at room temperature. Samples were analyzed CytoFLEX LX flow cytometer (Beckman Coulter, USA). Median Fluorescence Intensity (MFI) was calculated for each cell type using the CytExpert software from Beckman Coulter.

T1 sequence (Q9NZQ7 19-290): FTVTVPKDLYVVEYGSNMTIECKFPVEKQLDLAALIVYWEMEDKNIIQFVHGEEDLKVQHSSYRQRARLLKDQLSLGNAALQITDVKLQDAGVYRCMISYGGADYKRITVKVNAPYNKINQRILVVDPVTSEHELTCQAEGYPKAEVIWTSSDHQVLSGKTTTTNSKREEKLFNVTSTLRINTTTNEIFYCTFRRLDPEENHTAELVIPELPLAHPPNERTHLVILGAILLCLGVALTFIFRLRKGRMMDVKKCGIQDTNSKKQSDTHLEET

Anti-Human Fc (MFI) at 0.8 nM: 957 MFI
Anti-Human Fc (MFI) at 4 nM: 1660 MFI
Anti-Human Fc (MFI) at 20 nM: 3600 MFI
Anti-Human Fc (MFI) at 100 nM: 5400 MFI
fold change vs WT CD80 @20 nM: 5.3 fold
B2: CD80_238-Fc (Fc fusion)
chain: VIHVTKEVKEYATLSCGHNVSVEELAQTRIYWQKEKKMVLTMMSGEVNIWPEYKNRTIFDITNNLSIMILALRPSDEGTYECVVLKYEKDAFKREHLAEVTLSVKADGSGGGGS[omitted - human IgG4 Fc with S228P (EU numbers)]
notes: also called V11Y, D46E, M47V, V68M

Anti-Human Fc (MFI) at 0.8 nM: 998 MFI
Anti-Human Fc (MFI) at 4 nM: 1440 MFI
Anti-Human Fc (MFI) at 20 nM: 1920 MFI
Anti-Human Fc (MFI) at 100 nM: 2080 MFI
fold change vs WT CD80 @20 nM: 2.8 fold
B5: CD80_228-Fc (Fc fusion)
chain: B2 chain with E7Q, R29H, E46D, V47L, M68T
notes: also called E7Q, V11Y, R29H, M47L, V68T

Anti-Human Fc (MFI) at 0.8 nM: 4220 MFI
Anti-Human Fc (MFI) at 4 nM: 7570 MFI
Anti-Human Fc (MFI) at 20 nM: 8760 MFI
Anti-Human Fc (MFI) at 100 nM: 9700 MFI
fold change vs WT CD80 @20 nM: 12.8 fold
B7: CD80_240-Fc (Fc fusion)
chain: B2 chain with T28Y
notes: also called V11Y, T28Y, D46E, M47V, V68M

Anti-Human Fc (MFI) at 0.8 nM: 2460 MFI
Anti-Human Fc (MFI) at 4 nM: 6440 MFI
Anti-Human Fc (MFI) at 20 nM: 9550 MFI
Anti-Human Fc (MFI) at 100 nM: 9480 MFI
fold change vs WT CD80 @20 nM: 14 fold
B8: CD80_234-Fc (Fc fusion)
chain: B2 chain with T28Y, E46D, V47L, M68L
notes: also called V11Y, T28Y, M47L, V68L

Anti-Human Fc (MFI) at 0.8 nM: 3650 MFI
Anti-Human Fc (MFI) at 4 nM: 6520 MFI
Anti-Human Fc (MFI) at 20 nM: 6910 MFI
Anti-Human Fc (MFI) at 100 nM: 7170 MFI
fold change vs WT CD80 @20 nM: 10.1 fold
B9: CD80_233-Fc (Fc fusion)
chain: B2 chain with T28Y, E46D, V47L
notes: also called V11Y, T28Y, M47L, V68M

Anti-Human Fc (MFI) at 0.8 nM: 816 MFI
Anti-Human Fc (MFI) at 4 nM: 1100 MFI
Anti-Human Fc (MFI) at 20 nM: 1570 MFI
Anti-Human Fc (MFI) at 100 nM: 1820 MFI
fold change vs WT CD80 @20 nM: 2.3 fold
B10: CD80_232-Fc (Fc fusion)
chain: B2 chain with Y11F, T28Y, E46D, V47L, M68V
notes: also called V11F, T28Y, M47L

Anti-Human Fc (MFI) at 0.8 nM: 1680 MFI
Anti-Human Fc (MFI) at 4 nM: 4240 MFI
Anti-Human Fc (MFI) at 20 nM: 9000 MFI
Anti-Human Fc (MFI) at 100 nM: 10400 MFI
fold change vs WT CD80 @20 nM: 13.2 fold
B13: CD80_236-Fc (Fc fusion)
chain: B2 chain with T28Y, E46D, V47L, M68V, A71G
notes: also called V11Y, T28Y, M47L, A71G

Anti-Human Fc (MFI) at 0.8 nM: 683 MFI
Anti-Human Fc (MFI) at 4 nM: 692 MFI
Anti-Human Fc (MFI) at 20 nM: 853 MFI
Anti-Human Fc (MFI) at 100 nM: 1040 MFI
fold change vs WT CD80 @20 nM: 1.3 fold
B14: CD80_231-Fc (Fc fusion)
chain: B2 chain with Y11W, T28Y, E46D, V47L, M68V
notes: also called V11W, T28Y, M47L

The next lines start with the binder.

B1: CD80_209-Fc (Fc fusion)
chain: B2 chain with T28R, E35G, E46D, V47L, F59S, M68V
notes: also called V11Y, T28R, E35G, M47L, F59S
Anti-Human Fc (MFI) at 0.8 nM: 666 MFI
Anti-Human Fc (MFI) at 4 nM: 644 MFI
Anti-Human Fc (MFI) at 20 nM: 634 MFI
Anti-Human Fc (MFI) at 100 nM: 746 MFI
fold change vs WT CD80 @20 nM: 0.9 fold

B3: CD80_221-Fc (Fc fusion)
chain: B2 chain with E10G, Y11V, A26S, T28Y, E46D, V47M, M68V
notes: also called E10G, A26S, T28Y
Anti-Human Fc (MFI) at 0.8 nM: 686 MFI
Anti-Human Fc (MFI) at 4 nM: 767 MFI
Anti-Human Fc (MFI) at 20 nM: 809 MFI
Anti-Human Fc (MFI) at 100 nM: 917 MFI
fold change vs WT CD80 @20 nM: 1.2 fold

B4: CD80_215-Fc (Fc fusion)
chain: B2 chain with K9R, E10A, Y11V, E35G, E46D, V47M, M68L, L85E
notes: also called K9R, E10A, E35G, V68L, L85E
Anti-Human Fc (MFI) at 0.8 nM: 757 MFI
Anti-Human Fc (MFI) at 4 nM: 1000 MFI
Anti-Human Fc (MFI) at 20 nM: 1670 MFI
Anti-Human Fc (MFI) at 100 nM: 2420 MFI
fold change vs WT CD80 @20 nM: 2.4 fold

B6: CD80_214-Fc (Fc fusion)
chain: B2 chain with E10G, Y11V, E35G, T101K
notes: also called E10G, E35G, D46E, M47V, V68M, T101K
Anti-Human Fc (MFI) at 0.8 nM: 1070 MFI
Anti-Human Fc (MFI) at 4 nM: 1500 MFI
Anti-Human Fc (MFI) at 20 nM: 1730 MFI
Anti-Human Fc (MFI) at 100 nM: 2030 MFI
fold change vs WT CD80 @20 nM: 2.5 fold

B11: CD80_225-Fc (Fc fusion)
chain: B2 chain with E46D, V47L, M68T
notes: also called V11Y, M47L, V68T
Anti-Human Fc (MFI) at 0.8 nM: 931 MFI
Anti-Human Fc (MFI) at 4 nM: 1280 MFI
Anti-Human Fc (MFI) at 20 nM: 1920 MFI
Anti-Human Fc (MFI) at 100 nM: 2300 MFI
fold change vs WT CD80 @20 nM: 2.8 fold

B12: CD80_219-Fc (Fc fusion)
chain: B2 chain with E10S, M42R, E46D, V47M, M68V, A71V
notes: also called E10S, V11Y, M42R, A71V
Anti-Human Fc (MFI) at 0.8 nM: 615 MFI
Anti-Human Fc (MFI) at 4 nM: 639 MFI
Anti-Human Fc (MFI) at 20 nM: 730 MFI
Anti-Human Fc (MFI) at 100 nM: 830 MFI
fold change vs WT CD80 @20 nM: 1.1 fold
